Measurements taken from PubChem BioAssay (NCATS).
The shares of active, inactive and inconclusive entries below differ from those in the screen. No potency is given beside an inconclusive call; the fits are too rough. The source made the active and inactive calls. Calls follow the shape of the dose curve; as a rule, active = well fitted curve in the direction sought with a large enough effect; inconclusive = small, poorly fitted or top-dose-only effect, or another doubt; inactive = no such curve, though single readings can be large; an effect the other way counts as inactive or inconclusive.

The compounds below were run against Protein phosphatase 1D (Homo sapiens) (UniProt O15297) (assay: RapidFire Mass Spectrometry qHTS Assay for Modulators of WT P53-Induced Phosphatase 1 (WIP1) (AID 1347424;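 also: amount of dephosphorylated VEPPL-S-QETFS peptide product formed by WIP1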)). Details: WIP1 dephosphorylation of phosphopeptide, RapidFire MS; series mostly up to 63 µM.
Method in brief: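 10 nM WIP1 + cpd, 1 h RT; + 2 uM VEPPL-pS-QETFS, 5 min RT; stop 0.5% formic acid; labelled product standard 1 uM; RapidFire MS. Buffer 50 mM Tris pH 7.5, 30 mM MgCl2, 1 mM TCEP.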
Potency is read from the fitted curve at half-maximal effect; tags tell the direction and shape of the fitted curve.

UniProt O15297, sequence (O15297 whole entry, looked up): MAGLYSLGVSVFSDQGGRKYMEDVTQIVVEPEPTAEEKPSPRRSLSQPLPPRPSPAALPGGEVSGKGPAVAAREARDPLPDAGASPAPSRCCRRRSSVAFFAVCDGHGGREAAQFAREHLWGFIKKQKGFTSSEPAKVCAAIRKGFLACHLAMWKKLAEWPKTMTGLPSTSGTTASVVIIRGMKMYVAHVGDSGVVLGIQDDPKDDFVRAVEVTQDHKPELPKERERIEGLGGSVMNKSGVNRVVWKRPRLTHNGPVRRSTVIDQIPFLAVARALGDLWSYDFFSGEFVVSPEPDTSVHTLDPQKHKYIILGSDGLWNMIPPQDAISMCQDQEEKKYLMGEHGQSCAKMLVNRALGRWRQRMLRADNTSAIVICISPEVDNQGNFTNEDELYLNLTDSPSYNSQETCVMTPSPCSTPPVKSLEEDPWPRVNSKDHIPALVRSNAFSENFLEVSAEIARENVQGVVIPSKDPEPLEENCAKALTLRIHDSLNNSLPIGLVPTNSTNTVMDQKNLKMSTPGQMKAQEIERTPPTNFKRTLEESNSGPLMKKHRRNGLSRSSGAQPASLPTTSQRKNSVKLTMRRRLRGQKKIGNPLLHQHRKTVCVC

| Structure (SMILES) | Potency |
| --- | --- |
| Nc1cc(-c2ccncc2)c[nH]c1=O | active: 22.4 µM |
| CN(C)c1cc(NC(=O)CNC(C)(C)C)c(O)c2c1C[C@@H]1C[C@H]3[C@H](N(C)C)C(=O)C(C(N)=O)=C(O)[C@@]3(O)C(=O)C1=C2O | inconclusive [inhibitor, single point] |
| CCCCCCCC(=O)[O-].CCCCCCCC(=O)[O-].[Zn+2] | inconclusive [inhibitor, partial curve] |
| Cc1ccc(N)cc1O | active: 44.7 µM |
| C[C@](N)(Cc1ccc(O)c(O)c1)C(=O)O | inconclusive [inhibitor, single point] |
| Nc1ccc(O)c([N+](=O)[O-])c1 | active: 35.5 µM |
| CCCc1nc2c(C)cc(-c3nc4ccccc4n3C)cc2n1Cc1ccc(-c2ccccc2C(=O)O)cc1 | inconclusive [inhibitor, single point] |
| Cc1ccc(C(=O)Nc2ccc(S(=O)(=O)O)c3cc(S(=O)(=O)O)cc(S(=O)(=O)O)c23)cc1NC(=O)c1cccc(NC(=O)Nc2cccc(C(=O)Nc3cc(C(=O)Nc4ccc(S(=O)(=O)O)c5cc(S(=O)(=O)O)cc(S(=O)(=O)O)c45)ccc3C)c2)c1 | active: 3.98 µM |
| Nc1ccc(O)c(C(=O)O)c1 | active: 17.8 µM |
| O=C(O)c1ccccc1Nc1cccc(C(F)(F)F)c1 | inconclusive [inhibitor, single point] |
| O=Cc1ccc(O)c(O)c1O | inconclusive [inhibitor, partial curve, poor fit] |
| C#CC(C)(CC)OC(=O)c1ccccc1C(=O)O (stereo not drawn) | inactive |
| Oc1cccc(-c2c3nc(c(-c4cccc(O)c4)c4ccc([nH]4)c(-c4cccc(O)c4)c4nc(c(-c5cccc(O)c5)c5ccc2[nH]5)CC4)C=C3)c1 | active: 1.58 µM |
| CC(C(=O)O)c1ccc2c(c1)[nH]c1ccc(Cl)cc12 (stereo not drawn) | inconclusive [inhibitor, single point] |
| CCCC(=O)OC[C@@H](OC(=O)CCC)[C@@H](OC(=O)CCC)[C@H](Cn1c2nc(=O)[nH]c(=O)c-2nc2cc(C)c(C)cc21)OC(=O)CCC | inconclusive [inhibitor, single point] |

These compounds were tested against Protein phosphatase 1D (Homo sapiens) (UniProt O15297) (assay: Rhodamine-PBP qHTS Assay for Modulators of WT P53-Induced Phosphatase 1 (WIP1) (AID 1347425)). Details: recombinant WIP1, Rhodamine-PBP phosphate fluorescence, real-time; series mostly up to 57.5 µM.
Method in brief: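 WIP1 (5 nM final) was preincubated with compound for 1 hour at room temperature. It then dephosphorylated 10 uM VEPPL-pS-QETFS peptide in Tris-HCl pH 7.5 with 30 mM MgCl2. Released Pi was detected by 10 uM Rh-PBP fluorescence (ex 525/em 598 nm) read at 1-min intervals for 11 min, as delta f1 - f0.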

| Structure (SMILES) | Potency |
| --- | --- |
| Cc1c(OCC(F)(F)F)ccnc1CS(=O)c1nc2ccccc2[nH]1 (stereo not drawn) | inactive |
| Nc1cc(-c2ccncc2)c[nH]c1=O | inconclusive [inhibitor, single point] |
| CN(C)c1cc(NC(=O)CNC(C)(C)C)c(O)c2c1C[C@@H]1C[C@H]3[C@H](N(C)C)C(=O)C(C(N)=O)=C(O)[C@@]3(O)C(=O)C1=C2O | inconclusive [inhibitor, partial curve, poor fit] |
| O=C(O)c1ccccc1NCCc1ccccc1 | inactive |
| CCCCCCCC(=O)[O-].CCCCCCCC(=O)[O-].[Zn+2] | inconclusive [inhibitor, partial curve, poor fit] |
| Cc1ccc(N)cc1O | inconclusive [inhibitor, partial curve, poor fit] |
| C[C@](N)(Cc1ccc(O)c(O)c1)C(=O)O | inconclusive [inhibitor, partial curve, poor fit] |
| COc1ccc2nc(NC(=O)Nc3ccccc3)sc2c1 | inconclusive [inhibitor, single point] |
| CCCCCCCCCCCC(=O)[O][Sn]([CH2]CCC)([CH2]CCC)[O]C(=O)CCCCCCCCCCC | inconclusive [inhibitor, single point] |
| CNS(=O)(=O)CCc1ccc2[nH]cc(C3CCN(C)CC3)c2c1 | inactive |
| Nc1ccc(O)c([N+](=O)[O-])c1 | inconclusive [inhibitor, partial curve, poor fit] |
| CO[C@@]1(NC(=O)Cc2cccs2)C(=O)N2C(C(=O)O)=C(COC(N)=O)CS[C@@H]21 | inactive |
| Oc1ccc(OCc2ccccc2)cc1 | inactive |
| CCCc1nc2c(C)cc(-c3nc4ccccc4n3C)cc2n1Cc1ccc(-c2ccccc2C(=O)O)cc1 | inconclusive [inhibitor, partial curve, poor fit] |
| O=C(CCN1CCN(CCO)CC1)N1c2ccccc2Sc2ccc(C(F)(F)F)cc21 | inactive |
| Cc1ccc(C(=O)Nc2ccc(S(=O)(=O)O)c3cc(S(=O)(=O)O)cc(S(=O)(=O)O)c23)cc1NC(=O)c1cccc(NC(=O)Nc2cccc(C(=O)Nc3cc(C(=O)Nc4ccc(S(=O)(=O)O)c5cc(S(=O)(=O)O)cc(S(=O)(=O)O)c45)ccc3C)c2)c1 | inconclusive [inhibitor, partial curve, poor fit] |
| CC(C)Oc1ccc2c(=O)c(-c3ccccc3)coc2c1 | inactive |
| Nc1ccc(O)c(C(=O)O)c1 | inconclusive [inhibitor, single point] |
| CC(C)(C)c1nnc(NS(=O)(=O)c2ccc(N)cc2)s1 | inconclusive [inhibitor, partial curve, poor fit] |
| Nc1nc2ccc([N+](=O)[O-])cc2s1 | inconclusive [inhibitor, partial curve, poor fit] |
| O=C(O)c1ccccc1Nc1cccc(C(F)(F)F)c1 | inconclusive [inhibitor, partial curve, poor fit] |
| O=Cc1ccc(O)c(O)c1O | inconclusive [inhibitor, partial curve, poor fit] |
| Oc1cccc(-c2c3nc(c(-c4cccc(O)c4)c4ccc([nH]4)c(-c4cccc(O)c4)c4nc(c(-c5cccc(O)c5)c5ccc2[nH]5)CC4)C=C3)c1 | inconclusive [inhibitor, partial curve, poor fit] |
| COc1ccc(-c2cc(=S)ss2)cc1 | inconclusive [inhibitor, partial curve, poor fit] |
| Oc1ccc(/C=C/c2cc(O)cc(O)c2)cc1 | inconclusive [inhibitor, partial curve, poor fit] |
| COc1cc(NC(C)CCCN)c2ncccc2c1 (stereo not drawn) | inconclusive [inhibitor, partial curve, poor fit] |
| CC(C(=O)O)c1ccc2c(c1)[nH]c1ccc(Cl)cc12 (stereo not drawn) | inconclusive [inhibitor, single point] |
| CCCC(=O)OC[C@@H](OC(=O)CCC)[C@@H](OC(=O)CCC)[C@H](Cn1c2nc(=O)[nH]c(=O)c-2nc2cc(C)c(C)cc21)OC(=O)CCC | inconclusive [inhibitor, single point] |
